# Reference: the supplement of paper PMC3334620
# Whole data set: some 33,000 sequences, median “E-score (-0.5 to 0.5)” near -0.032, cut for the highest 2% near 0.36. The list shows a part of the results.
# Target: T1, Sko1 (UniProt Q02100)
# T1 sequence: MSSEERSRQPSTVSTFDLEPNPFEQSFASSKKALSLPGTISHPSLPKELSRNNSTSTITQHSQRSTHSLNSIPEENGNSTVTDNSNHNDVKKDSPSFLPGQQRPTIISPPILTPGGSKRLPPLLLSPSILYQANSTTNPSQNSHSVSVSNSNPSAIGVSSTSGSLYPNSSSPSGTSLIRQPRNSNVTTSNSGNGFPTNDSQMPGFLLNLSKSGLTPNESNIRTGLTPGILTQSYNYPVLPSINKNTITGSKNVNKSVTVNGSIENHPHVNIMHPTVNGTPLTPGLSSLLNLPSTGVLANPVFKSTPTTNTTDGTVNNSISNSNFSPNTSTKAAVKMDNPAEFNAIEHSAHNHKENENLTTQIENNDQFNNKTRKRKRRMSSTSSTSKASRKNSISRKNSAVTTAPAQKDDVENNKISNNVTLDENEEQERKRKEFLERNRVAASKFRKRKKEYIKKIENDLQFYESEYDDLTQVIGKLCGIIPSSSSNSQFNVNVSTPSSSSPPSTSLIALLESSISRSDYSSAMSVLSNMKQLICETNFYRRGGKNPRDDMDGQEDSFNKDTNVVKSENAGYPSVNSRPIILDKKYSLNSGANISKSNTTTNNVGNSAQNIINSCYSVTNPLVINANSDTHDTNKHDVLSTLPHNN
# Assay: PBM E-score (8-mer binding enrichment) (E-score (-0.5 to 0.5)); higher = stronger / more preferred TF binding; most listed sequences are background and not binding sites
# Settings: protein concentration: 200 nM; construct: GST-full length
# Procedure: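 Universal 'all 10-mer' protein binding microarrays (Agilent AMADID 015681) probed with GST-tagged S. cerevisiae TFs (full-length or DBD) made by in vitro transcription/translation (PURExpress), about 100-200 nM. Bound TF was detected with fluorescent anti-GST. Each ungapped 8-mer (which stands for itself and its reverse complement) is scored by the PBM enrichment score (E-score), a modified Wilcoxon-Mann-Whitney statistic from -0.5 to +0.5, computed with the Universal PBM Analysis Suite. Scale: above 0.35 generally sequence-specific binding.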
row,Sequence,PBM E-score
1,ATCAAATC,0.123
2,GAGGCCAA,-0.0813
3,CCGATTAC,0.0359
4,AATTGAGA,0.0849
5,TACCACTA,0.197
6,AAGAAACA,0.184
7,GGGCACCC,-0.277
8,ACCAGTAT,-0.227
9,AATATCGT,0.263
10,GTAGACCA,-0.0147
11,CGTTTCAA,0.119
12,ATTGGATA,0.0738
13,TGCTAACA,0.0675
14,ATCTTATG,0.0516
15,ACCTGGCA,-0.0795
16,AAATTTCA,0.0326
17,ACTGGGTA,0.0095
18,AGGGCAGG,-0.323
19,CGGGAGGA,-0.211
20,GATGGCGA,0.0644
21,AGAATACA,0.00326
22,GAGACCAA,-0.0994
23,CAATGACA,0.229
24,CTACAGCA,-0.0464
25,ACTAAAAA,0.119

row,Sequence,PBM E-score
1,GCCTTTTA,0.0198
2,GATCTTCA,0.00428
3,AATTAAGA,0.0436
4,CTAGACAG,-0.298
5,CGTTCTAG,-0.0071
6,CTCGAAAG,-0.101
7,ACTCCCAA,-0.188
8,ACTAGTAC,0.0236
9,CGATCACA,0.17
10,GAGACATA,0.00577
11,GCATTCAA,-0.0759
12,CCCTAATA,-0.0693
13,GCTGTTGA,0.0627
14,GTGTGCAA,0.22
15,ACGATGAG,0.124
16,CGGACGCA,-0.121
17,ATATTACG,0.465
18,CCACCCCA,0.0839
19,CATAAGTA,0.0019
20,AATGGTAA,0.168
21,CAAACTGA,-0.00112
22,CGCCTGAG,-0.229
23,GAAATAAA,0.114
24,ACACACCT,-0.00417
25,CGACCGCG,-0.205

row,Sequence,PBM E-score
1,GCACGGCC,-0.273
2,ATGGGACA,-0.359
3,CATTAGAA,0.191
4,ACTTACTC,-0.146
5,ACTATGAT,0.167
6,ACATTAGC,0.124
7,CGCCTCGC,-0.116
8,CGCCCGTA,-0.285
9,AATGATCG,0.0428
10,ATTTATAG,0.158
11,ACCACGAG,-0.163
12,AGCTTGTC,0.00999
13,AGAAGCTC,-0.203
14,CATAAGAG,-0.0273
15,AACGGTGG,-0.346
16,GGAGTGCC,-0.334
17,AGAGAGGG,-0.318
18,CATGCAGC,-0.0595
19,AAAGCTGC,0.0278
20,ATGCCTCG,0.142
21,ACCGGGCA,-0.356
22,GTCAATCA,0.196
23,AAATGTCT,0.0489
24,AATGAGCC,-0.308
25,ATCTTCCC,-0.0771

row,Sequence,PBM E-score
1,CCAAGATC,-0.101
2,AACCGATG,-0.206
3,GCCCGACA,-0.0508
4,CGCGTCCG,-0.0181
5,ACGATGAC,0.336
6,ACTGCACG,-0.0427
7,CGCTCGTC,0.133
8,GATGATTA,0.15
9,ACGTTTCC,0.294
10,CGTCCGCA,0.00964
11,CGCTCCAA,-0.0541
12,CGGAGTTA,-0.203
13,GTTCTAAA,-0.105
14,TCGAGGAA,-0.172
15,CCCCGAGA,-0.23
16,GCCTACAA,-0.169
17,AACACTTG,-0.118
18,CACACTTA,0.183
19,GCAACGTA,0.399
20,GAGGAGTA,0.2
21,AGTGGCTG,-0.228
22,AGGCCTGA,-0.144
23,CGATCCAA,-0.177
24,ATCGAATG,0.166
25,CTATGTAA,0.19

row,Sequence,PBM E-score
1,AGCACTAT,-0.0166
2,CTAAAAGA,0.0123
3,ACAACATC,0.153
4,TATATTGA,0.172
5,ATCCGATC,0.0509
6,GCTTATCA,-0.0774
7,AATAACGC,0.106
8,GGTGAACC,-0.061
9,CTCGTGGC,-0.219
10,CCCCGATA,-0.169
11,AGTCTATC,-0.188
12,CCCTTAAG,-0.0627
13,AACGGCCT,-0.304
14,CCTAAGTA,-0.0946
15,CCGGTGTA,-0.27
16,AGTTAGAA,-0.0939
17,ACTCGTAC,0.084
18,GGCTAACA,-0.0118
19,CCAACTGG,-0.12
20,ATTAACTA,0.216
21,ATACCGAC,0.00626
22,ATTAATGG,0.214
23,ATATACCA,0.0399
24,GCTGAGTA,-0.306
25,TAGGTGGA,0.0623

row,Sequence,PBM E-score
1,CCATATAG,-0.184
2,GGATCATA,-0.086
3,AAATATAC,0.182
4,AACTAGTT,-0.0308
5,GTTCTCCA,-0.0853
6,CGACCAAA,0.102
7,CGTATGGA,0.245
8,CAGACGAC,-0.123
9,ACGTTAGA,0.265
10,CAAACGCC,-0.106
11,AAGTCACA,0.0509
12,GGAATGAC,0.3
13,GGTTCCCA,-0.172
14,CGCCGTTA,-0.0842
15,CCCAACAG,-0.301
16,GTCACGAC,0.251
17,ATAACCAC,0.0684
18,ATTGGAGC,-0.08
19,AAATCAGT,-0.00401
20,ATGTCTAA,0.198
21,AGTGATAC,0.107
22,GAACAGGA,0.0482
23,CCTCCACA,-0.0717
24,CAAGTTGC,0.12
25,GTGCCTTA,-0.0625

row,Sequence,PBM E-score
1,AGTACCTC,-0.132
2,GTTTAACA,0.0101
3,AGGTCGAT,0.0361
4,GGCTTCCC,-0.29
5,GATACGAC,0.166
6,ACTCTTAG,-0.175
7,GATCTCCA,-0.0784
8,GAACCAAC,0.0178
9,ATCCGCCA,-0.115
10,GATATCGA,0.0983
11,ACGTTCAT,0.282
12,GACACCCA,-0.174
13,GGGCCAGA,-0.278
14,AAGAATCT,-0.0424
15,AAACCGTC,-0.0343
16,ACGTAAAC,0.459
17,TACTTCGA,0.161
18,GGGCTAGA,-0.235
19,AATGCTAT,0.106
20,ACTCCTCC,-0.19
21,AGGCATGA,0.153
22,TCGAAAAA,0.148
23,AAGCCTCA,-0.252
24,TCTCCTAA,0.141
25,AACAGCGC,-0.119

row,Sequence,PBM E-score
1,GGTTCCAA,-0.0929
2,ACAACTAG,-0.00944
3,CAAATGCC,-0.166
4,CCGAGCGA,-0.146
5,GGGATAAC,-0.0341
6,AATAGGCT,0.0268
7,AAGACCCG,-0.105
8,CTAATTGC,0.104
9,CAGCGCCC,-0.192
10,CCTGTTGC,-0.125
11,GTCGGCAA,-0.215
12,GGGTCTCA,-0.297
13,AGCTGCAA,-0.152
14,ACCGACTA,-0.22
15,GACCCCGA,-0.198
16,GGGTGGAC,-0.23
17,CGATTTGA,-0.0299
18,GAACTCCC,-0.1
19,ACTTTATC,0.0288
20,GGGCCTCA,-0.189
21,GGAGCTTA,-0.135
22,AATAGGTC,0.128
23,ACCGATTA,-0.0449
24,AATAGCGA,0.137
25,GCCCGGAC,-0.355

row,Sequence,PBM E-score
1,AAACCACT,0.00368
2,CTGATTGA,-0.0403
3,GAACAGGC,-0.252
4,CCTCCGAA,-0.243
5,AATACCTG,-0.0743
6,ACTCGCTA,-0.136
7,GCACTTCC,-0.231
8,AATGAGGC,-0.169
9,GCAATCAC,0.0788
10,ATTCCCAC,-0.0577
11,AAAGGCGG,-0.0355
12,TAGGCAAA,-0.0439
13,ACATTTAA,0.165
14,GCCCGCAC,-0.0286
15,ACGATATG,0.303
16,ATGTACGC,0.254
17,CTGACTCC,-0.23
18,GCACGGTA,-0.0606
19,CTCTTAAC,-0.0409
